Results on 45 compounds are retold here after publication PMC4336329 (PLoS ONE, 2015).

In all, about 310,000 compounds went through this assay and about 14,000 (4.5%) showed an effect of 50% or more. The effect is printed as a negative number. The list shows a part of the results.
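Further: peak tail current of the secondary pulse compared with the same well before compound.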

The target in this experiment is human ether-à-go-go-related gene (hERG) potassium channel (human, UniProt Q12809). Put plainly: primary screen, population patch clamp on CHO cells stably expressing hERG.
Chain of human ether-à-go-go-related gene (hERG) potassium channel (Q12809 whole entry, looked up): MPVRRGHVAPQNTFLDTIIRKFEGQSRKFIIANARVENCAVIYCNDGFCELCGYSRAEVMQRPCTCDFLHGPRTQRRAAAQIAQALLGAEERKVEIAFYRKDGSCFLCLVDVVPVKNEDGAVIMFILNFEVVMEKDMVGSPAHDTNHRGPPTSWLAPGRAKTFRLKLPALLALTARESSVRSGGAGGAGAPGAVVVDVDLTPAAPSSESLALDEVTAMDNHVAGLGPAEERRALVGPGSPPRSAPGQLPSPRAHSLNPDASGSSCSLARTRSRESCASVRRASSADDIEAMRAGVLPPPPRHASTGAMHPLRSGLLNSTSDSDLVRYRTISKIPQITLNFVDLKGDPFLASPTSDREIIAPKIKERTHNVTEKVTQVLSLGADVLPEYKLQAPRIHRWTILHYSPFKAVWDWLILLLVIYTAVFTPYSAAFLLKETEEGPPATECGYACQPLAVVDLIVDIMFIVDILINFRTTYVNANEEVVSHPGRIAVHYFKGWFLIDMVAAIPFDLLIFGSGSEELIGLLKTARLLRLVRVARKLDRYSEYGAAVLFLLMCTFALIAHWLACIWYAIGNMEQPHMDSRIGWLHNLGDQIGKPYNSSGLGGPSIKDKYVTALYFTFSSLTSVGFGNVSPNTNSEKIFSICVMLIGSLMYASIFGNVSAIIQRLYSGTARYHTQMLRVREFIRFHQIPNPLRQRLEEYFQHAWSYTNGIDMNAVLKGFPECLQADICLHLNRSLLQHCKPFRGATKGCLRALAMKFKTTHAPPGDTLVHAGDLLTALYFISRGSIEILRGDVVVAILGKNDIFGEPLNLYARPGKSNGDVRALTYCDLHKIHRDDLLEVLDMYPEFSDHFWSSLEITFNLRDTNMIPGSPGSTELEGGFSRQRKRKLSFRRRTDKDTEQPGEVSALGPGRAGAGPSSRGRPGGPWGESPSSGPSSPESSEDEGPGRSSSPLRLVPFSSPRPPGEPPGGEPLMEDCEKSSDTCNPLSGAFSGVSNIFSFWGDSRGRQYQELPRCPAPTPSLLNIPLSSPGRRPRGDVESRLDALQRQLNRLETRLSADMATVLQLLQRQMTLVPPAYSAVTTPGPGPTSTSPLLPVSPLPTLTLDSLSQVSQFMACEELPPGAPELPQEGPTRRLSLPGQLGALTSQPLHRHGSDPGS
For `Cc1cc(C)nc(N2CCC(CNC(=O)CCc3ccccc3)CC2)n1`, the “hERG current change (%, negative = inhibition) at 10uM” value stood at 30%. With `CC(=O)N(Cc1ccccn1)Cc1ccco1`, the “hERG current change (%, negative = inhibition) at 10uM” value worked out at 4.86%.

With `O=C(Nc1nc2ccc3ccccc3c2s1)c1ccc(N2CCCCC2)c([N+](=O)[O-])c1`, the “hERG current change (%, negative = inhibition) at 10uM” value came to 16.3%.

`O=C(Nc1nnc(SCc2ccccc2)s1)c1cccs1`: the “hERG current change (%, negative = inhibition) at 10uM” value was 13.1%. With `NC(=O)c1cnn(-c2ccc3ccccc3c2)c1N`, the “hERG current change (%, negative = inhibition) at 10uM” value stood at 13%. With `COC(=O)CNc1ccc2c(c1)OCO2`, the “hERG current change (%, negative = inhibition) at 10uM” value came to 2.66%. With `O=P(OC1CCCCC1)(OC1CCCCC1)C(O)c1cccnc1` (stereo not drawn), the “hERG current change (%, negative = inhibition) at 10uM” value worked out at 5.74%.

For `CC1(C)C(=O)C2(CCCCC2)C(=O)OC1c1cccs1` (stereo not drawn), the “hERG current change (%, negative = inhibition) at 10uM” value is on record as 10.8%. Consider `O=C(CCCN1C(=O)/C(=C/c2cccc(Br)c2)SC1=S)Nc1ccccn1`, for which the “hERG current change (%, negative = inhibition) at 10uM” value turned out to be 3.95%.

For `Nc1nc(-c2ccc(Br)s2)c(Br)s1`, the “hERG current change (%, negative = inhibition) at 10uM” value stood at 12.2%. Turning to `CC1Cc2ccccc2N1CC(=O)NC(=O)NC(C)(C)C` (stereo not drawn), the “hERG current change (%, negative = inhibition) at 10uM” value is on record as -1.69%. The result for `CCCN(CCC)CCNC(=O)c1cc2c(C)nc3ccccc3c2o1` reads -29.7%; that for `CC(C)c1ccccc1NC(=O)COC(=O)c1c2c(nc3ccccc13)CCN(Cc1ccccc1)C2`, 12.9%. Consider `COC(Cc1nnc(SC)n1-c1ccccc1)OC`, for which the “hERG current change (%, negative = inhibition) at 10uM” value is given as -2.97%. On to `Cc1cc(=O)oc2ccc(OCC(=O)N3CCC(C)CC3)cc12`, for which the “hERG current change (%, negative = inhibition) at 10uM” value was -4.23%.

As for `Cc1cc(OC(=O)c2cc(C(F)(F)F)cc(C(F)(F)F)c2)c([N+](=O)[O-])c(=O)[nH]1`, the “hERG current change (%, negative = inhibition) at 10uM” value is on record as 1.6%. Regarding `O=C(CCNS(=O)(=O)c1ccccc1C(F)(F)F)N1CCN(c2ccccc2O)CC1`, the “hERG current change (%, negative = inhibition) at 10uM” value is -26.9%. `Cc1ccc(N2C(=O)CC(Sc3ncccn3)C2=O)cc1C` (stereo not drawn): the “hERG current change (%, negative = inhibition) at 10uM” value is 11.6%. The result for `O=C(Nc1cccc(S(=O)(=O)N2CCOCC2)c1)c1cc2ccccc2o1` reads -9.76%. Take `COc1ccc(CNC(=O)N[C@@H](Cc2c[nH]c3ccccc23)C(=O)O)cc1`: the “hERG current change (%, negative = inhibition) at 10uM” value was determined as 22.8%.

Regarding `COc1ccccc1-c1nnc2n1N=C(c1ccc(O)c(O)c1)CS2`, the “hERG current change (%, negative = inhibition) at 10uM” value was -0.453%. The result for `Cc1ccccc1S(=O)(=O)NC1=NCCCCC1` reads -1.22%; that for `CCOCCCNC(=O)c1ccc(NC(=O)C2=CSCCO2)cc1`, 15.4%. Regarding `COc1ccc(NC(=S)N(Cc2cccnc2)Cc2ccco2)cc1`, the “hERG current change (%, negative = inhibition) at 10uM” value is recorded as -24.5%. For `CCOc1cccc(C2C(C(=O)c3ccco3)=C(O)C(=O)N2Cc2ccncc2)c1` (stereo not drawn), the “hERG current change (%, negative = inhibition) at 10uM” value came out at 19.5%.

As to `CCN1CCN(c2ccc(N3CCN(S(=O)(=O)c4cc([N+](=O)[O-])ccc4C)CC3)nn2)CC1`, the “hERG current change (%, negative = inhibition) at 10uM” value is recorded as -54.4%.

For the compound `Cc1cc(C)cc(C(=O)Nc2ccc(N3CCCC3)cc2)c1`, the “hERG current change (%, negative = inhibition) at 10uM” value was determined as 39.7%. Turning to `CCc1ccccc1N1C(=O)C(Cl)=C(N2CCOCC2)C1=O`, the “hERG current change (%, negative = inhibition) at 10uM” value amounted to 14.7%. Regarding `COCCn1c(SCc2cc(C(C)=O)ccc2OC)nc2cc(Cl)ccc2c1=O`, the “hERG current change (%, negative = inhibition) at 10uM” value is -12.8%. In the case of `Cc1ccccc1C(=O)NC1CCN(CC(=O)Nc2ccc3c(c2)OCO3)CC1`, the “hERG current change (%, negative = inhibition) at 10uM” value is given as -47.3%. As for `COc1ccc(N(C(=O)c2ccn[nH]2)C(C(=O)NC(C)(C)C)c2ccc(F)cc2)cc1` (stereo not drawn), the “hERG current change (%, negative = inhibition) at 10uM” value is given as -0.51%. With `O=c1[nH]c(=S)n(Cc2ccc(F)cc2)c(O)c1C=NCc1cccnc1`, the “hERG current change (%, negative = inhibition) at 10uM” value is given as -16.6%.

As to `O=C(CNc1cccc2ccccc12)N/N=C/c1cccc(Oc2ccccc2)c1`, the “hERG current change (%, negative = inhibition) at 10uM” value was 18.2%. Regarding `COc1ccc(S(=O)(=O)NC2CCCCCC2)c(OC)c1`, the “hERG current change (%, negative = inhibition) at 10uM” value is listed as 10.6%.

With `O=C1CN(C(=O)COC(=O)CCSc2ccccc2Cl)c2ccccc2N1`, the “hERG current change (%, negative = inhibition) at 10uM” value is reported as -0.554%. For `COc1ccc(NC(=O)C2CC2)cc1S(=O)(=O)N1CCOCC1`, the “hERG current change (%, negative = inhibition) at 10uM” value is -12.6%. `CCC1(C)Cc2c(sc3nc4n(c(=O)c23)CCCS4)CO1` (stereo not drawn): the “hERG current change (%, negative = inhibition) at 10uM” value was -0.139%. On to `CC(C)=N/N=C(/c1ccc([N+](=O)[O-])cc1)C12CN3CN(CN(C3)C1)C2`, for which the “hERG current change (%, negative = inhibition) at 10uM” value was -8.65%. `CCN1CCN(C(c2ccc(F)cc2)c2nnnn2Cc2cccs2)CC1` (stereo not drawn): the “hERG current change (%, negative = inhibition) at 10uM” value is reported as -59.4%. On to `Nc1ccc(-c2ccc(N)c(C(=O)O)c2)cc1C(=O)O`, for which the “hERG current change (%, negative = inhibition) at 10uM” value is on record as 7.74%.

Turning to `N/C(=N\c1nc2c(c(=O)[nH]1)CCC2)Nc1ccccc1`, the “hERG current change (%, negative = inhibition) at 10uM” value was found to be 10%.

On to `COc1cccc(NS(=O)(=O)c2c(C)n(C)c(=O)n(C)c2=O)c1`, for which the “hERG current change (%, negative = inhibition) at 10uM” value was -19.9%. The result for `Cl.Clc1ccc(OCCCCN2CCc3ccccc3C2)cc1` reads -68.1%; that for `O=C(NCCCn1ccnc1)C(Cc1ccccc1)N1C(=O)c2ccccc2C1=O` (stereo not drawn), -34.5%. For `COc1ccc(N2CCN(C(=O)C3CCCN(c4ncnc5c4nc4n5CCCCC4)C3)CC2)cc1` (stereo not drawn), the “hERG current change (%, negative = inhibition) at 10uM” value is -68.7%.
